# Source: the supplement of paper PMC11055344
# Legend:
# penicillin G = compound: CC1(C)S[C@@H]2[C@H](NC(=O)Cc3ccccc3)C(=O)N2[C@H]1C(=O)O [penicillin G]; experiment: Broth microdilution.
# amoxicillin = compound: CC1(C)S[C@@H]2[C@H](NC(=O)[C@H](N)c3ccc(O)cc3)C(=O)N2[C@H]1C(=O)O [amoxicillin]; experiment: Broth microdilution.
Test System,MIC (penicillin G) [µg/mL],MIC (amoxicillin) [µg/mL]
"Streptococcus pneumoniae isolate 60 (PBP alleles 1a 2b 2x: 2_6_0, serotype: 11A)",≤ 0.01,≤ 0.01
"Streptococcus pneumoniae isolate 61 (PBP alleles 1a 2b 2x: 86_82_162, serotype: Non-typeable/NCC2a)",≤ 0.01,≤ 0.01
"Streptococcus pneumoniae isolate 62 (PBP alleles 1a 2b 2x: 7_0_1, serotype: 23B1)",0.125,0.03
"Streptococcus pneumoniae isolate 63 (PBP alleles 1a 2b 2x: 2_0_2, serotype: 21)",0.03,0.03
"Streptococcus pneumoniae isolate 64 (PBP alleles 1a 2b 2x: 0_0_3, serotype: 35F)",0.03,≤ 0.01
"Streptococcus pneumoniae isolate 65 (PBP alleles 1a 2b 2x: 0_0_2, serotype: 35B)",0.03,≤ 0.01
"Streptococcus pneumoniae isolate 66 (PBP alleles 1a 2b 2x: 2_0_2, serotype: 21)",0.03,≤ 0.01
"Streptococcus pneumoniae isolate 67 (PBP alleles 1a 2b 2x: 15_76_New, serotype: 11A)",2,8
"Streptococcus pneumoniae isolate 68 (PBP alleles 1a 2b 2x: 0_0_2, serotype: 10A)",≤ 0.01,≤ 0.01
"Streptococcus pneumoniae isolate 69 (PBP alleles 1a 2b 2x: 2_0_3, serotype: 34)",0.03,≤ 0.01
"Streptococcus pneumoniae isolate 70 (PBP alleles 1a 2b 2x: 7_1_1, serotype: 23B1)",0.25,0.06
"Streptococcus pneumoniae isolate 71 (PBP alleles 1a 2b 2x: 2_4_3, serotype: 10A)",0.03,≤ 0.01
"Streptococcus pneumoniae isolate 72 (PBP alleles 1a 2b 2x: 1_0_0, serotype: 15B/C)",≤ 0.01,≤ 0.01
"Streptococcus pneumoniae isolate 73 (PBP alleles 1a 2b 2x: 0_0_53, serotype: 10A)",0.03,≤ 0.01
"Streptococcus pneumoniae isolate 74 (PBP alleles 1a 2b 2x: 1_2_2, serotype: 22F)",0.03,≤ 0.01
"Streptococcus pneumoniae isolate 75 (PBP alleles 1a 2b 2x: 2_6_0, serotype: 11A)",≤ 0.01,≤ 0.01
"Streptococcus pneumoniae isolate 76 (PBP alleles 1a 2b 2x: 1_0_0, serotype: 9N)",0.03,≤ 0.01
"Streptococcus pneumoniae isolate 77 (PBP alleles 1a 2b 2x: 2_0_6, serotype: 23A)",0.03,0.03
"Streptococcus pneumoniae isolate 78 (PBP alleles 1a 2b 2x: 78_0_0, serotype: Serogroup 24)",≤ 0.01,≤ 0.01
"Streptococcus pneumoniae isolate 79 (PBP alleles 1a 2b 2x: 1_2_2, serotype: 22F)",≤ 0.01,≤ 0.01

Test System,MIC (penicillin G) [µg/mL],MIC (amoxicillin) [µg/mL]
"Streptococcus pneumoniae isolate 80 (PBP alleles 1a 2b 2x: 2_0_6, serotype: 23A)",0.03,≤ 0.01
"Streptococcus pneumoniae isolate 81 (PBP alleles 1a 2b 2x: 2_0_2, serotype: 21)",≤ 0.01,≤ 0.01
"Streptococcus pneumoniae isolate 82 (PBP alleles 1a 2b 2x: 7_1_New, serotype: 16F)",0.25,0.25
"Streptococcus pneumoniae isolate 83 (PBP alleles 1a 2b 2x: 13_New_43, serotype: 15A)",2,2
"Streptococcus pneumoniae isolate 84 (PBP alleles 1a 2b 2x: 0_6_2, serotype: 16F)",0.03,≤ 0.01
"Streptococcus pneumoniae isolate 85 (PBP alleles 1a 2b 2x: 2_6_0, serotype: 11A)",≤ 0.01,≤ 0.01
"Streptococcus pneumoniae isolate 86 (PBP alleles 1a 2b 2x: 2_0_6, serotype: 23A)",0.03,≤ 0.01
"Streptococcus pneumoniae isolate 87 (PBP alleles 1a 2b 2x: 2_3_2, serotype: 3)",≤ 0.01,≤ 0.01
"Streptococcus pneumoniae isolate 88 (PBP alleles 1a 2b 2x: 78_0_0, serotype: Serogroup 24)",0.03,≤ 0.01
"Streptococcus pneumoniae isolate 89 (PBP alleles 1a 2b 2x: 2_3_2, serotype: 3)",0.03,0.03
"Streptococcus pneumoniae isolate 90 (PBP alleles 1a 2b 2x: 86_82_162, serotype: Non-typeable/NCC2a)",≤ 0.01,≤ 0.01
"Streptococcus pneumoniae isolate 91 (PBP alleles 1a 2b 2x: 2_6_0, serotype: 11A)",≤ 0.01,≤ 0.01
"Streptococcus pneumoniae isolate 92 (PBP alleles 1a 2b 2x: 2_6_0, serotype: 11A)",≤ 0.01,≤ 0.01
"Streptococcus pneumoniae isolate 93 (PBP alleles 1a 2b 2x: 2_6_0, serotype: 11A)",0.03,≤ 0.01
"Streptococcus pneumoniae isolate 94 (PBP alleles 1a 2b 2x: 2_0_2, serotype: 15B/C)",0.03,≤ 0.01
"Streptococcus pneumoniae isolate 95 (PBP alleles 1a 2b 2x: 1_0_0, serotype: 15A)",0.03,≤ 0.01
"Streptococcus pneumoniae isolate 96 (PBP alleles 1a 2b 2x: 2_0_2, serotype: 15B/C)",0.03,≤ 0.01
"Streptococcus pneumoniae isolate 97 (PBP alleles 1a 2b 2x: 2_53_77, serotype: 6C)",0.125,0.125
"Streptococcus pneumoniae isolate 98 (PBP alleles 1a 2b 2x: 0_0_2, serotype: 10A)",0.03,≤ 0.01
"Streptococcus pneumoniae isolate 99 (PBP alleles 1a 2b 2x: 2_6_0, serotype: 11A)",0.03,0.03

Test System,MIC (penicillin G) [µg/mL],MIC (amoxicillin) [µg/mL]
"Streptococcus pneumoniae isolate 100 (PBP alleles 1a 2b 2x: 0_0_3, serotype: 35F)",0.03,≤ 0.01
"Streptococcus pneumoniae isolate 101 (PBP alleles 1a 2b 2x: 2_0_6, serotype: 33F)",≤ 0.01,≤ 0.01
"Streptococcus pneumoniae isolate 102 (PBP alleles 1a 2b 2x: 7_1_1, serotype: 23B1)",0.25,0.06
"Streptococcus pneumoniae isolate 103 (PBP alleles 1a 2b 2x: 1_0_0, serotype: 9N)",0.03,≤ 0.01
"Streptococcus pneumoniae isolate 104 (PBP alleles 1a 2b 2x: 2_6_0, serotype: 11A)",≤ 0.01,≤ 0.01
"Streptococcus pneumoniae isolate 105 (PBP alleles 1a 2b 2x: 2_0_0, serotype: 17F)",0.03,≤ 0.01
"Streptococcus pneumoniae isolate 106 (PBP alleles 1a 2b 2x: 7_1_1, serotype: 23B1)",0.25,0.06
"Streptococcus pneumoniae isolate 107 (PBP alleles 1a 2b 2x: 0_4_2, serotype: 6C)",0.03,0.03
"Streptococcus pneumoniae isolate 108 (PBP alleles 1a 2b 2x: 2_6_0, serotype: 11A)",0.03,≤ 0.01
"Streptococcus pneumoniae isolate 109 (PBP alleles 1a 2b 2x: 2_0_2, serotype: 21)",0.03,≤ 0.01
"Streptococcus pneumoniae isolate 110 (PBP alleles 1a 2b 2x: 2_0_6, serotype: 23A)",0.03,0.03
"Streptococcus pneumoniae isolate 111 (PBP alleles 1a 2b 2x: 0_0_0, serotype: 23B)",≤ 0.01,≤ 0.01
"Streptococcus pneumoniae isolate 112 (PBP alleles 1a 2b 2x: 2_6_0, serotype: 11A)",0.03,≤ 0.01
"Streptococcus pneumoniae isolate 113 (PBP alleles 1a 2b 2x: 0_0_3, serotype: 35F)",≤ 0.01,≤ 0.01
"Streptococcus pneumoniae isolate 114 (PBP alleles 1a 2b 2x: 0_0_3, serotype: 35F)",0.03,≤ 0.01
"Streptococcus pneumoniae isolate 115 (PBP alleles 1a 2b 2x: 1_4_2, serotype: 20)",≤ 0.01,≤ 0.01
"Streptococcus pneumoniae isolate 116 (PBP alleles 1a 2b 2x: 0_0_3, serotype: 35F)",≤ 0.01,≤ 0.01
"Streptococcus pneumoniae isolate 117 (PBP alleles 1a 2b 2x: 2_6_0, serotype: 11A)",≤ 0.01,≤ 0.01
"Streptococcus pneumoniae isolate 118 (PBP alleles 1a 2b 2x: 7_1_1, serotype: 23B1)",0.125,0.03

# MIC of nasopharyngeal S. pneumoniae isolates by broth microdilution (range and time not stated); higher = less susceptible. No active / inactive call per row; the paper counts penicillin above 0.06 and amoxicillin above 0.5 mg/L as non-susceptible (EUCAST). The lowest value, 0.01, is taken as the floor ('<='); the source prints it plain. Penicillin G is assumed for 'penicillin'. Isolates are numbered anew. PBP alleles are the type numbers of penicillin-binding proteins 1a, 2b and 2x; equal numbers mean equal sequences.
